59 sequences from the supplement of paper PMC5655136 can be followed below.

These are enrichments in a pooled selection; single values are uncertain.

The data set has as its system NB7. Description: fold depletion of shRNA, plasmid library share / infected cells without Dox share (9 days) (ratio); higher = more depleted after infection (more toxic, leaky expression from a Tet-inducible vector; NB7 is a neuroblastoma line without caspase-8).
Where [1] appears, read: shRNA pool: CD95L ORF + CD95L 3'UTR + Venus libraries.
The mark [2] stands for this setting: shRNA pool: CD95 ORF + CD95 3'UTR + Venus libraries.
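Note: shRNA barcodes quantified by deep sequencing of PCR amplicons from cellular DNA, counts expressed as percent of each subpool, ratio averaged over two biological duplicates.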

For CGGGGTGGTGCCCATCCTGGT, the “fold depletion of shRNA” value is, setting by setting: under setting [1], 0.383; under setting [2], 0.624.

Consider GGCAATAAATTTATCTGATGT, for which the “fold depletion of shRNA” value under setting [2] was found to be 0.949.

Consider CAAACTTCAGAAATGAAATCC, for which the “fold depletion of shRNA” value under setting [2] amounted to 0.858. Consider TCTACATGAGGAACTCTAAGT, for which, under setting [1], the “fold depletion of shRNA” value turned out to be 0.954. With GCCAATGCCCCACTGGCAGCA, the “fold depletion of shRNA” value under setting [1] was found to be 0.951.

TTTCTGTAAATGTAAACTGTG: the “fold depletion of shRNA” value under setting [2] is 1.72. For the sequence GGCCTTGCTACCTCAAGGGGG, the “fold depletion of shRNA” value under setting [1] worked out at 1.37. With AGTCAATGGGGATGAACCAGA, under setting [2], the “fold depletion of shRNA” value turned out to be 4.47. The same measure, in the same setting: in the case of TGAATTCACATAGAAAACATT it was 0.681. On the same count and under the same terms, in the case of TTGAGTAAATATATCACCACT it was 1.11.

With AGACCACAGGGTTCAAAATGT, the “fold depletion of shRNA” value under setting [1] was 3.58.

ACAGGCACCGAGAATGTTGTA: the “fold depletion of shRNA” value under setting [1] was 1.56. Regarding AGCCTGGTTTGGAGATACTAA, under setting [2], the “fold depletion of shRNA” value worked out at 1.05. Regarding AAGAGAGAATGTAGATATTGT, the “fold depletion of shRNA” value under setting [1] was 0.595. In the case of ATGCCCAAGTGACTGACATCA, the “fold depletion of shRNA” value under setting [2] worked out at 3.8. Turning to GGAATTGTCCTGCTTTCTGGA, under setting [1], the “fold depletion of shRNA” value came to 0.912. In the case of GGCATGGACGAGCTGTACAAG, the “fold depletion of shRNA” value under setting [2] was 3.7.

In the case of GGCAAGCTGACCCTGAAGCTG, the “fold depletion of shRNA” value under setting [1] came out at 1.51 and the “fold depletion of shRNA” value under setting [2] turned out to be 1.99. As for AAAATCATCATCTGGATTTAG, the “fold depletion of shRNA” value under setting [2] amounted to 1.47. For TCCACTACCGCTGCCACCCCT, under setting [1], the “fold depletion of shRNA” value was 14.6. TTTGGTCAAGATTTTGAATGC: under setting [1], the “fold depletion of shRNA” value was found to be 0.636.

As for CAAAGCCCATTTTTCTTCCAA, the “fold depletion of shRNA” value under setting [2] was found to be 0.912.

With GACCCTCCTACCTCTGGTTCT, under setting [2], the “fold depletion of shRNA” value stood at 1.42. For the sequence GGAGCGCACCATCTTCTTCAA, the “fold depletion of shRNA” value reads like this: under setting [1], 0.914; under setting [2], 1.62. As to TGGGCCTTGCTACCTCAAGGG, the “fold depletion of shRNA” value under setting [1] turned out to be 1.96. Consider TTTGTACTCTTGCAGAGAAAA, for which, under setting [2], the “fold depletion of shRNA” value worked out at 0.599. Consider CTGCAGTGCTTCGCCCGCTAC, for which the “fold depletion of shRNA” value runs as follows: under setting [1], 1.55; under setting [2], 2.26. In the same order, the values of TACGTCCAGGAGCGCACCATC are 2.67 and 1.58. With CCAGTCCGCCCTGAGCAAAGA, the “fold depletion of shRNA” value reads like this: under setting [1], 2.6; under setting [2], 2.39. With TGTGAATTTTAAGAAATAATA, the “fold depletion of shRNA” value under setting [2] was found to be 1.23. As for AAATGTCTGTAGCTCCTCAAC, the “fold depletion of shRNA” value under setting [1] was found to be 18.9. Consider AGGAATTGCTCTTGTCATACC, for which the “fold depletion of shRNA” value under setting [2] amounted to 1.97. Same read-out and setting: in the case of CCCAAACATGGAAATATCACC it was 2.11. On the same count and under the same terms, in the case of AATCCTGAAACAGTGGCAATA it was 1.41; in that of AAGACTGCCCTTAGAAATTCT, 5.1; in that of AAATATCAGTTACTGAACAGG, 1.82. In the case of TATGTAGATGTGCATTTTTGT, under setting [1], the “fold depletion of shRNA” value was 7.23. As for GATGAAAGATTAAGATTATGC, under setting [2], the “fold depletion of shRNA” value amounted to 1.39. As for CCTGGCCCACCCTCGTGACCA, the “fold depletion of shRNA” value runs as follows: under setting [1], 1.71; under setting [2], 1.58. For GTTTGGAATTATAAAATATAG, the “fold depletion of shRNA” value under setting [2] was 0.818.

Consider CCTGGAACCACCTAAAGAACT, for which, under setting [2], the “fold depletion of shRNA” value is 1.98. On to ATATTGTGAAGTACATATTAG, for which the “fold depletion of shRNA” value under setting [1] was 0.677. TTAAATTATAATGTTTGACTA: the “fold depletion of shRNA” value under setting [2] was 1.44. As for CTACGGCCTGCAGTGCTTCGC, the “fold depletion of shRNA” value reads like this: under setting [1], 0.949; under setting [2], 0.535. For AAGAAGAGAGGGAACCACAGC, the “fold depletion of shRNA” value under setting [1] worked out at 3.61. In the case of GTGCTTAAAAATCATTGATTG, under setting [1], the “fold depletion of shRNA” value worked out at 0.672.

For CCAATGCCCCACTGGCAGCAT, the “fold depletion of shRNA” value under setting [1] was determined as 2.34. As to GGCCCACCCTCGTGACCACCC, the “fold depletion of shRNA” value was 0.396 under setting [1] and 0.639 under setting [2]. Turning to GACTGACATCAACTCCAAGGG, the “fold depletion of shRNA” value under setting [2] amounted to 2.5. Take CCGCGCCGAGGTGAAGTTCGA: the “fold depletion of shRNA” value under setting [1] came out at 0.75 and the “fold depletion of shRNA” value under setting [2] was 0.557. In the same order, the values of GCCCGCTACCCCGACCACATG are 1.02 and 1.01. Consider ACACCTTTTAACTCACCTCTC, for which the “fold depletion of shRNA” value under setting [1] was found to be 2.2. Regarding AACATGGAATCATCAAGGAAT, the “fold depletion of shRNA” value under setting [2] is 1.28. In the case of GTGTGTGTGTATGACTAAAGA, the “fold depletion of shRNA” value under setting [1] is 0.698. With AACTGCTCTCAGAGAAAGTAG, under setting [2], the “fold depletion of shRNA” value was 1.61. On to TATATGTGTATGCATTTTACT, for which the “fold depletion of shRNA” value under setting [2] worked out at 1.72. Still for that read-out and setting: then ATTTATTAGCGCTGAAGAGCC, with 2.12; and CTTCCATTTATGGAGGATTTT, with 0.991. Regarding GCAGCACGACTTCTTCAAGTC, the “fold depletion of shRNA” value stood at 0.775 under setting [1] and 1.18 under setting [2].
